# Measurements published in PubChem BioAssay AID1963825 (Molecular Pharmacology Branch, DTP, NCI, 2024).
# Some entries of the source have several records that differ or are many. The other results are left out here. The source may hold further records. Values given together repeat one measurement (runs, samples, wells, individuals or studies). Signs of the kind (2×) give the number of equal values in this list. A date in brackets names the month of the test.
# Test: Anticancer human tumor 997537-175-T-J1-PDC patient-derived colon adenocarcinoma cell line growth inhibition [POLQ]
# Conditions: 997537-175-T-J1-PDC complex spheroid viability, combination with POLQ inhibitors; for IC50: compound alone; for viability, T/C: stronger effect = lower value
# Experimental: Multicellular complex tumor spheroid response to Polymerase (POL) inhibitors (novobiocin, ART-558, RP6685) in combination with a variety of drugs and investigational agents in selected tumor cell lines
# The POL inhibitors (novobiocin, ART-558, and RP6685) were evaluated both individually and in combination with standard of care and investigational anticancer small molecules within a complex spheroid model of solid tumors. . Complex spheroids include a stromal component modeled by human endothelial cells (HUVEC) and fibroblasts modeled by human mesenchymal stem cells (MSCs). The concentration ranges selected for each drug and investigational agent were based upon clinically achievable concentrations if the clinical Cmax of the agent was known.
# Compounds. The drugs and investigational agents: novobiocin (NSC847541), ART-558 (NSC835418), RP-6685 (NSC848927), peposertib (NSC802822), ceralasertib (NSC780249), elimusertib (NSC800525), camonsertib (NSC841442), AZD-1390 (NSC803789), olaparib (NSC753686), talazoparib (NSC767125), rucaparib (NSC756644), sotorasib (NSC818433), MRTX-1133 (NSC836407), SN-38 (NSC673596), topotecan (NSC609699), epotoside (NSC141540), doxorubicin (NSC123127), gemcitabine (NSC613327), 5-fluorouracil (NSC19893), paclitaxel (NSC125973), vemurafenib (NSC761431), MSA-2 (NSC828583), SN-011 (NSC837082), adavosertib (NSC754352), prexasertib (NSC758257), carboplatin (NSC241240) and oxaliplatin (NSC266046), were obtained from the National Cancer Institute (NCI) Developmental Therapeutics Program Chemical Repository (21). The FDA-approved anticancer drug set is available from the Developmental Therapeutics Program at https://dtp.cancer.gov/organization/dscb/obtaining/. […] The stock solutions were prepared in dimethyl sulfoxide (DMSO, Sigma-Aldrich, St. Louis, MO, cat. D2650), except for the platinum compounds which were prepared in saline (Quality Biological, Gaithersburg, MD, cat. 114-055-101), at 800-fold the tested concentration and stored at -70 degrees C prior to their use. All drugs and investigational agents were tested over a range starting from a high concentration at or near the clinical Cmax and decreasing in half-log increments. If the clinical Cmax for an agent had not been determined, the highest concentration tested was 10 microM, except for SN-38, which was tested at a high concentration of 1 microM.
# Cell Culture. All cells were maintained in an incubator at 37 degrees C and 5% CO2 with 95% humidity. The PDC lines were cultured according to standard operating procedures established by the NCI PDMR (https://pdmr.cancer.gov). Table 3 of the manuscript, lists the cell lines along with the number of the three cell types plated to form the mct-spheroids and media for tumor cell growth. After thawing, all PDC lines, except 997537-175-T-J1-PDC and 415267-285-R-J2-PDC, were cultured in Matrigel-coated flasks prepared with a working solution of 1X Ham's F-12 nutrient mix, without supplementation (Thermo Fisher Scientific, cat. 11765054), 100 U/mL penicillin-streptomycin (Thermo Fisher Scientific, cat. 15140122), and 2.5% Matrigel (Corning Inc., Corning, NY, cat. 354248) for the first three passages. The two PDC lines 997537-175-T-J1-PDC and 415267-285-R-J2-PDC were cultured on uncoated flasks. The 857933-349-R-J2-PDC line was cultured in 6C/Colon 1B media containing advanced DMEM/F-12 (Thermo Fisher Scientific, cat. 12634028), 10 mM HEPES (Thermo Fisher Scientific, cat. 15630080), 1X GlutaMAX supplement (Thermo Fisher Scientific, cat. 35050061), 0.1 mg/mL primocin (InvivoGen, San Diego, CA, cat. ant-pm-2), 10% defined fetal bovine serum, heat inactivated (HyClone Laboratories Inc., Logan, UT, cat. SH30070.03HI), 50% L-WRN conditioned media (ATCC, cat. CRL-3276), 1.25 mM N-Acetyl-L-cysteine (Sigma-Aldrich, cat. A9165), 10 mM nicotinamide (Sigma-Aldrich, cat. N0636), 1X B-27 supplement (Thermo Fisher Scientific, cat. 17504044), 1X N-2 supplement (Thermo Fisher Scientific, cat. […]
# 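Also: luminescence signal used as a surrogate for viable cells; spheroids exposed to drugs for seven days before readout.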
structure (smiles),measurement,setting,value
CC(C)n1c(=O)n(C)c2cnc3cc(F)c(-c4ccc(OCCCN5CCCCC5)nc4)cc3c21,IC50,,"< 31.6 nM, > 10 µM [2023-11] and > 10 µM [2023-12]"
O=C(c1cc(Cc2n[nH]c(=O)c3ccccc23)ccc1F)N1CCN(C(=O)C2CC2)CC1,IC50,,"< 31.6 nM, > 10 µM [2023-11] and > 10 µM [2023-12]"
Nc1ccc(C#CCN(C(=O)Cc2ncc(C(F)(F)F)cc2C(F)(F)F)c2ccc(F)cc2)nn1,"viability, T/C",compound alone 1 µM,"105 (2×), 102, 94.8, 106, 110, 103, 97.2, 97.7, 92.1, 101, 84.7, 107%"
COC1C(OC(N)=O)C(O)C(Oc2ccc3c(O)c(NC(=O)c4ccc(O)c(CC=C(C)C)c4)c(=O)oc3c2C)OC1(C)C (configuration not stated),"viability, T/C",compound alone 0.0316 µM,"82.4, 106, 98.9, 97.5, 112, 93.1, 90.5, 104, 100, 105, 99.3, 99.1, 93.5%"
same,"viability, T/C",compound alone 3.16 µM,"92.3, 85.5, 103, 112, 110, 90.1, 106, 99, 99.9, 91.6, 108, 97, 98.6%"
same,"viability, T/C",compound alone 10 µM,"90.9, 101 (2×), 97.1, 105, 85.4, 97, 94.6, 111, 100, 99.5, 98.7, 98%"
CC1COCCN1c1cc(-c2ccnn2C)c2ccnc(-c3ccn[nH]3)c2n1 (configuration not stated),IC50,,"273 nM, > 10 µM [2023-11] and > 10 µM [2023-12]"
